# From PubChem BioAssay AID624417 (National Center for Advancing Translational Sciences (NCATS), 2012)
# In all, about 410,000 compounds went through this assay and about 6,400 (1.6%) were called active. Inconclusive results, whose numbers are uncertain, are shown with a selection of clear calls. Calls come from the whole dose curve; as a rule, active = well fitted inhibition curve with a large enough effect; inconclusive = small, poorly fitted or top-dose-only effect; inactive = no such curve, though single readings can be large or run the other way. No potency is given beside an inconclusive call; the fits are too rough.
# Molecular target: Glucagon-like peptide 1 receptor (Homo sapiens) (UniProt P43220)
# Assay: qHTS of GLP-1 Receptor Inverse Agonists (Inhibition Mode); note: nearly all actives have a fitted effect of over 55% in size
# Conditions: HEK293 GLP-1R CRE-luciferase, luminescence, 24 h, GLP-1R form is constitutively active; series mostly up to 38.3 µM
# Method in brief: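 qHTS in 1536-well format: reporter HEK293 cells expressing constitutive GLP-1R activity in DMEM + 10% Nu serum, 24 hr with compounds at 37 deg C, luminescence read after 12 min with detection reagent.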
# Potency is the fitted concentration of half-maximal effect; tags give direction and shape of the fitted curve.
# Sequence of UniProt P43220 (P43220 whole entry, looked up): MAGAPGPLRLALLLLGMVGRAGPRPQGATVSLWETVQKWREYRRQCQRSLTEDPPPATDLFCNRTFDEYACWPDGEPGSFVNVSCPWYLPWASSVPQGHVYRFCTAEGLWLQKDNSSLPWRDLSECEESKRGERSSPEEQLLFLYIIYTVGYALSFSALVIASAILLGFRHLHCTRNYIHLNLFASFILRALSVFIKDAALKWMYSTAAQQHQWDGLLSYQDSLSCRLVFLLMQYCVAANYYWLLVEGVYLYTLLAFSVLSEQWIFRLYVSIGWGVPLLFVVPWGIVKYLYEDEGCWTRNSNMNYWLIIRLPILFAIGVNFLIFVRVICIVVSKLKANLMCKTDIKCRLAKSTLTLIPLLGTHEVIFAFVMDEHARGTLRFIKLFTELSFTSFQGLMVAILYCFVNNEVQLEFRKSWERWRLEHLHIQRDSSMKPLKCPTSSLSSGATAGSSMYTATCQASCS
row,Compound,Potency
1,Fc1ccc(NC(=S)Nc2nccs2)cc1,"inconclusive [inhibitor, partial curve, poor fit]"
2,O=C(CN1C(=O)NC2(CCCCCC2)C1=O)Nc1ccc([N+](=O)[O-])cc1,"inconclusive [inhibitor, partial curve, poor fit]"
3,C/C(CC1CC2=C(CC1(C)C)C(C)(C)CCC2)=N\NC(N)=S (stereo not given),"inconclusive [inhibitor, full curve, poor fit]"
4,N#CC(c1ccccc1)C1CCN(Cc2ccccc2)CC1 (stereo not given),"inconclusive [inhibitor, partial curve]"
5,CC(C)Cn1c(/C=C/c2ccco2)nc2ccccc21,"inconclusive [inhibitor, partial curve, poor fit]"
6,CC1(C(=O)Nc2ccc(Cl)cc2)Cc2c(-c3cccc(C(N)=O)c3)ccnc2O1 (stereo not given),"inconclusive [inhibitor, partial curve]"
7,CCCCCCCCNC1=CC(=O)CC(C)(C)C1,"inconclusive [inhibitor, single point]"
8,C/C(=N\OC(=O)c1ccc(Br)cc1)c1ccccn1,inactive
9,COc1ccccc1CCNC(=O)C(=O)NCC1CCCN1S(=O)(=O)c1ccccc1 (stereo not given),"inconclusive [inhibitor, single point]"
10,CCOC(=O)[C@]12CCCC=C1N(Cc1ccc(Cl)cc1Cl)C(=O)[C@H](CC(=O)NCc1ccc(OC)c(OC)c1)C2,"inconclusive [inhibitor, single point]"
11,O=c1c(Br)c(Br)cnn1-c1ccccc1,"inconclusive [inhibitor, single point]"
12,COc1ccccc1-c1sc2ccccc2c1-c1cnc(N2CCOCC2)nc1,"inconclusive [inhibitor, partial curve, poor fit]"
13,COc1cc(F)ccc1CN1CCC(C(=O)Nc2ccc(Oc3ccccc3)nc2)CC1,"inconclusive [inhibitor, partial curve, poor fit]"
14,OCC1(CCc2ccccc2)CCN(Cc2cc(Cl)ccc2O)CC1,"inconclusive [inhibitor, partial curve, poor fit]"
15,Cc1ccc(S(=O)(=O)Cn2nnnc2CN(Cc2ccco2)Cc2cccs2)cc1,"inconclusive [inhibitor, partial curve, poor fit]"
16,O=C(NC(=S)N1CCN(c2ccc(O)cc2)CC1)c1cccs1,"inconclusive [inhibitor, partial curve, poor fit]"
17,C=CCn1c(COc2ccc(F)cc2)nnc1SCC(=O)c1c[nH]c2c(CC)cccc12,"inconclusive [inhibitor, partial curve, poor fit]"
18,O=C(c1ccc(Cl)cc1)C1CCN(C(=O)c2ccccc2)CC1,"inconclusive [inhibitor, partial curve, poor fit]"
19,CC(C)(C)OC(=O)N1Cc2[nH]c3ccccc3c2C[C@@H]1C(=O)O,inactive
20,CC(C)(C)c1ccc(C(=O)Nc2ccc(Oc3cccnc3)nc2)cc1,active: 8.91 µM

row,Compound,Potency
1,CN1CCN(c2ccccc2NC(=O)c2cc(Br)ccc2Cl)CC1,"inconclusive [inhibitor, partial curve, poor fit]"
2,Cc1cc(OCc2cc(C(=O)N(Cc3nccn3C)C(C)C)no2)cc(C)c1Cl,"inconclusive [inhibitor, partial curve, poor fit]"
3,Oc1ccc(/C=N/Nc2ccc3ccccc3c2)c(O)c1,"inconclusive [inhibitor, partial curve, poor fit]"
4,N#Cc1ccccc1OCc1nnc(-c2ccccc2Br)o1,inactive
5,CCCc1[nH]c2ccc(C#N)cc2c1CCC,active: 10 µM
6,CN(C)c1ccc(/C=N/NC(=O)c2ccco2)cc1,"inconclusive [inhibitor, single point]"
7,N#CCCN(C(=O)COc1ccc(F)cc1Br)c1ccccc1F,"inconclusive [inhibitor, single point]"
8,CCN(C(=O)COC(=O)CCC(=O)c1ccc(C)cc1)c1c(N)n(Cc2ccccc2)c(=O)[nH]c1=O,inactive
9,CCOC(=O)c1nnn(-c2nonc2N)c1CN(CC)c1ccccc1,"inconclusive [inhibitor, single point]"
10,COc1ccc(-c2noc(CCC(=O)NC3CCCCC3)n2)cc1,inactive
11,COc1cccc(C(=O)Nc2ccc(C(=O)c3ccccc3)cc2)c1,"inconclusive [inhibitor, single point]"
12,COC(=O)c1ccc(NC(=O)C2CC3CCC2C3)cc1 (stereo not given),inactive
13,CCOC(CNC(=O)c1ccc(N2CCc3ccccc32)c([N+](=O)[O-])c1)OCC,"inconclusive [inhibitor, partial curve, poor fit]"
14,CC(/C=N/Nc1nc(N2CCCCC2)nc(N2CCCCC2)n1)=C\c1ccccc1,inactive
15,Cc1ccc2nc(C(C)(C)C)c(Cc3cccc(Cl)c3)n2c1,"inconclusive [inhibitor, partial curve, poor fit]"
16,Cc1c(C(=O)N(C)CC(=O)Nc2cccc(F)c2)oc2c(Cl)cccc12,"inconclusive [inhibitor, partial curve, poor fit]"
17,CCCCS(=O)(=O)c1oc(-c2cccs2)nc1S(=O)(=O)c1ccc(F)cc1,"inconclusive [inhibitor, single point]"
18,CCCCCOc1ccc(Cn2c(=O)oc3ccc(C)cc32)cc1OC,"inconclusive [inhibitor, partial curve, poor fit]"
19,CN1CCN(c2ccccc2NC(=O)c2ccc(N3CCCC3)c([N+](=O)[O-])c2)CC1,"inconclusive [inhibitor, single point]"
20,COC(=O)[C@@]1(Cc2ccc(F)cc2)[C@H]2c3cc(C(=O)N(C)C)n(Cc4ccc(C)o4)c3C[C@H]2CN1C(=O)c1ccccc1,"inconclusive [inhibitor, single point]"
